# According to PubChem BioAssay AID588855 (National Center for Advancing Translational Sciences (NCATS), 2011):
# The campaign covered roughly 410,000 compounds. About 5,000 (1.2%) were called active. The shares of active, inactive and inconclusive entries below differ from those in the screen. The call rests on the fitted dose curve; in most records, active means well fitted inhibition curve with a large enough effect; inconclusive means small, poorly fitted or top-dose-only effect; inactive means no such curve, though single readings can be large or run the other way. Where the call is inconclusive, the potency comes from a doubtful curve fit.
# Assay: qHTS for Inhibitors of TGF-b; further: nearly all actives have a fitted effect of over 65% in size
# Conditions: HepG2 CAGA-GFP TGF-b/SMAD3 reporter, GFP fluorescence, 18 h, TGF-beta stimulated, 500 pg/mL final; series mostly up to 46.1 µM; activity, negative = inhibition: at the top concentration
# In short: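 HEPG2 CAGA-GFP cells (1000/well, DMEM with 1% FBS) were pre-incubated 2 h at 37 degrees C, given compound by pin tool, then stimulated with TGF-beta at 500 pg/mL final for 18 h before per-cell GFP fluorescence imaging.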
# On the % scale 0 is the no-effect control and ±100 the full control effect; potency means the concentration at half of the fitted maximal effect; tags describe the fitted curve by direction and shape.
SMILES,Potency,"activity, negative = inhibition"
CCCCn1c(-c2csc3c2CCC(C)C3)n[nH]c1=S (configuration not stated),"inconclusive: 12.6 µM [inhibitor, partial curve, poor fit]",
O=C(Oc1ccc(N(Cc2cccs2)C2=NS(=O)(=O)c3ccccc32)cc1)c1ccco1,"inconclusive: 3.55 µM [inhibitor, single point]",
COc1cccc(Cn2cc(/C=N/NC(=O)c3cc(O)cc(O)c3)c3ccccc32)c1,"inconclusive: 0.112 µM [inhibitor, full curve, poor fit]",
O=C(/C=C/c1ccc(Cl)cc1)N(Cc1ccccc1)C1CCS(=O)(=O)C1 (configuration not stated),"inconclusive: 22.4 µM [inhibitor, single point]",
COC(=O)C1CCN(C(=O)CSc2nc3nc(C)cc(C)n3n2)CC1,"inconclusive: 20 µM [inhibitor, partial curve, poor fit]",
CCc1ccccc1NC(=O)CN(Cc1ccccc1)S(=O)(=O)c1ccc(Br)cc1,"inconclusive: 20 µM [inhibitor, partial curve, poor fit]",
O=C(Nc1cc(Cl)cc(Cl)c1)c1ccc(F)c(S(=O)(=O)N2CCc3ccccc32)c1,active: 3.98 µM,
COc1ccc(CCNC(=O)c2ccc3c(c2)N(Cc2c(F)cccc2Cl)C(=O)CS3)cc1OC,,inactive: -5.6%
N#Cc1c(-c2ccccc2)c(-c2ccccc2)nn(CC(=O)NNC(=O)Nc2ccc(Cl)c(Cl)c2)c1=O,"inconclusive: 35.5 µM [inhibitor, single point]",
CC(=O)Nc1c(Cl)cc(Cl)c2c1Cc1cc(Cl)ccc1-2,,inactive: 11%
CS(=O)(=O)N1CCc2cc(C(=O)Nc3ccc(Cl)cc3)ccc21,,inactive: 6.15%
Cc1ccccc1N(CC(=O)N1CCCC1)S(=O)(=O)c1ccc(Cl)cc1,"inconclusive: 0.112 µM [inhibitor, full curve, poor fit]",
COc1ccc(CNC(=O)/C(C#N)=C/c2cccc(OC)c2OC)cc1,"inconclusive: 35.5 µM [inhibitor, partial curve, poor fit]",
O=C(Nc1ccc(S(=O)(=O)N2CCc3ccccc32)cc1)c1ccc2c(c1)OCO2,"inconclusive: 2.82 µM [inhibitor, full curve, poor fit]",
Cc1ccc(N(CC(=O)Nc2ccc(-c3nc4ccc(C)cc4s3)cc2)S(C)(=O)=O)cc1,"inconclusive: 6.31 µM [inhibitor, single point]",
O=S(=O)(c1ccc(Cl)cc1)N1CCC(c2nc3ccccc3[nH]2)CC1,"inconclusive: 35.5 µM [inhibitor, single point]",
NC(=O)C(c1ccc(Cl)cc1)c1ccc(Sc2ccccc2)nn1 (configuration not stated),"inconclusive: 15.8 µM [inhibitor, single point]",
